T1: human ANG2 protein (623-AN-025/CF, R&D) (human, UniProt O15123 19-496, limits assumed)
T1 sequence (looked up): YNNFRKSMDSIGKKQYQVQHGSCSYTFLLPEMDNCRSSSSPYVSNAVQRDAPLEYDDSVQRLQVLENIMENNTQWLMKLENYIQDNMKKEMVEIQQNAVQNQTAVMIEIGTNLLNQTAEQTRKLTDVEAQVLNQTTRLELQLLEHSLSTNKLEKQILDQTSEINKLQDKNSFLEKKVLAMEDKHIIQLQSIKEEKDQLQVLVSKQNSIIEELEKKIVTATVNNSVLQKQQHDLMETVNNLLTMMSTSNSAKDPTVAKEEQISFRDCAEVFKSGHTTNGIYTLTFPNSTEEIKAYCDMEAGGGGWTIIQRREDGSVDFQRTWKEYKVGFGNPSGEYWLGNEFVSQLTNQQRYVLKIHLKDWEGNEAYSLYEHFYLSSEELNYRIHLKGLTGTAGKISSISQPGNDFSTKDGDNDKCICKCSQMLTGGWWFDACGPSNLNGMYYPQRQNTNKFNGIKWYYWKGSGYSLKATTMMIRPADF


Experiments:
[1] = biological target: T1, human ANG2 protein (623-AN-025/CF, R&D); test: cell-based or functional assay
[2] = biological target: T1, human ANG2 protein (623-AN-025/CF, R&D); test: flow cytometry, inhibition of human ANG2 (10 µg/mL) binding to HUVEC cells
Description: HUVEC cells (H-003, Allcells) in a good growth state were prepared into a single cell suspension. After cell counting, the cells were plated in a 96-well plate in 10⁵ cells/well. A final concentration of the human ANG2 protein (623-AN-025/CF, R&D) was 10 μg/mL, which was constant. The antibodies to be detected were added to each well according to an experimental design, respectively. The highest concentration of the antibodies was 1000 nM, the antibodies were subjected to 5-fold dilution in sequence and 7 concentration gradients were set in total, and meanwhile, a blank control and a positive control RG7716 (ATAD00534, Atagenix) were set. After the cells were incubated for 30 min at room temperature, cells in each well were washed three times and resuspended, and fluorescence-labeled secondary antibodies PE anti-His (362603, Biolegend) were added and incubated in darkness for 30 min at room temperature. The cells in each well were washed three times, resuspended and loaded on a flow cytometer for detection.

[3] = biological target: T1, human ANG2 protein (623-AN-025/CF, R&D); test: SPR (Biacore T200), antibody captured on Protein A chip, human ANG2 as analyte, 1:1 fit
Description: The test antibodies were captured by using a Sensor Chip ProteinA chip (GE, Cat. No. 28995056), and the antigen human ANG2 protein (623-AN-025/CF, R&D) was used as an analyte to detect kinetics and affinity data obtained after the antigen human ANG2 protein bound to the test samples. An initial concentration of the detection of the binding of the antigen to the test samples was 10 nM. […] The antigen was injected from the low concentration to the high concentration in sequence. One negative control (1×HBS-EP+buffer) and one repeated concentration (generally, the lowest concentration was repeated) were set. Before the injection, a flushing process of Start up (1×HBS-EP+buffer) was performed at least three times to balance the system. Binding and dissociation trends of the antigen and the test samples were detected. After the dissociation was completed, a regenerating agent was injected to regenerate the chip. After the chip regeneration was completed, the next concentration was detected. After the detection was completed, a data fitting experiment was performed through a 1:1 Binding fitting manner in data analysis software (Biacore T200 Evaluation Software).

Binder	IC50 of inhibition of AKT phosphorylation of human ANG2-dependent HUVEC cells [1] [nM]	IC50 [2] [nM]	Kd [3] [nM]	koff [3] [s⁻¹]	kon [3] [M⁻¹ s⁻¹]
Y400C (bispecific antibody, human IgG1, kappa, Anti-VEGF IgG with the anti-ANG2 VHH at the C-terminus of each heavy chain: (VH)-(CH1)-(hinge)-(Fc)-(linker)-(VHH); also called bispecific antibody Y400C; diabody molecule Y400C) heavy: EVQLVESGGGLVQPGGSLRLSCAASGYDFTHYGMNWVRQAPGKGLEWVGWINTYTGEPTYAADFKRRFTFSLDTSKSTAYLQMNSLRAEDTAVYYCAKYPYYYGTSHWYFDVWGQGTLVTVSS[human IgG1 constant region left out]GGGSEVQLVESGGGLVQPGESLRLSCVASGFPSGFTFSDYQMYWYRQAPGKERELVAIISNDGLRKTYADSVKGRFTISRDNAKNTMFLQMNSLKPEDTAVYVCNVRRANRDDWGQGTQVTVSS light: DIQLTQSPSSLSASVGDRVTITCSASQDISNYLNWYQQKPGKAPKVLIYFTSSLHSGVPSRFSGSGSGTDFTLTISSLQPEDFATYYCQQYSTVPWTFGQGTKVEIKRTVAAPSVFIFPPSDEQLKSGTASVVCLLNNFYPREAKVQWKVDNALQSGNSQESVTEQDSKDSTYSLSSTLTLSKADYEKHKVYACEVTHQGLSSPVTKSFNRGEC	1.26	19.4	0.545	0.000622	1.14e+06
Y400E (bispecific antibody, human IgG1, kappa, Anti-VEGF IgG with the anti-ANG2 VHH at the C-terminus of each heavy chain: (VH)-(CH1)-(hinge)-(Fc)-(linker)-(VHH); also called bispecific antibody Y400E; diabody molecule Y400E) heavy: EVQLVESGGGLVQPGGSLRLSCAASGYDFTHYGMNWVRQAPGKGLEWVGWINTYTGEPTYAADFKRRFTFSLDTSKSTAYLQMNSLRAEDTAVYYCAKYPYYYGTSHWYFDVWGQGTLVTVSS[human IgG1 constant region left out]GGGSGGGGSGGGGSEVQLVESGGGLVQPGESLRLSCVASGFPSGFTFSDYQMYWYRQAPGKERELVAIISNDGLRKTYADSVKGRFTISRDNAKNTMFLQMNSLKPEDTAVYVCNVRRANRDDWGQGTQVTVSS light: DIQLTQSPSSLSASVGDRVTITCSASQDISNYLNWYQQKPGKAPKVLIYFTSSLHSGVPSRFSGSGSGTDFTLTISSLQPEDFATYYCQQYSTVPWTFGQGTKVEIKRTVAAPSVFIFPPSDEQLKSGTASVVCLLNNFYPREAKVQWKVDNALQSGNSQESVTEQDSKDSTYSLSSTLTLSKADYEKHKVYACEVTHQGLSSPVTKSFNRGEC	2.27	30.3	0.453	0.000873	1.93e+06

Reference: patent US20240425575A1 (SOTER BIOPHARMA PTE, published 2024)
